The whole screen tested about 150,000 compounds, of which about 540 (0.36%) showed an effect of 50% or more. The list shows a part of the results.
tested on: Plasmodium falciparum; assay: Primary screen in NF54 nanoGlo assay, in single point, at 2uM, 72h; a lower Z score goes with more inhibition; type: functional, Erythrocyte; details: timepoint 72 hour

Row | Structure (SMILES) | % Inhibition | Z score
1 | C[C@H](NC(=O)c1nccs1)c1ccc(OC(F)(F)F)cc1 | -9% | 0.84
2 | Cc1ccc(CN(C(=O)c2ccn3nnnc3c2)C2CCCC2)s1 | -2% | 0.3
3 | CN(C)c1ccc(C(=O)N2C[C@@H]3CC[C@H]2CN(S(=O)(=O)N(C)C)C3)cc1 | -17% | 1.52
4 | O=C(CCc1ccccc1)Nc1ccc(N2CCN(c3ccccc3F)CC2)c(S(=O)(=O)NCc2ccc3c(c2)OCO3)c1 | 4% | -0.67
5 | O=C(Cc1ccn[nH]1)NCc1ccc(Cn2ccnc2)cc1 | 29% | -3.84
6 | Cc1c(Cl)cccc1N1CC[C@@H](C(=O)Nc2cccc(Cl)c2)C1=O | 2% | -0.41
7 | Cc1cccc([C@H]2CCCN(C(=O)Nc3ccc(N4CCCC4=O)cc3)C2)c1 | 1% | -0.18
8 | Cc1ccc(Cn2c(=O)c3nn(C)cc3n3c(=O)n(Cc4ccc(N5CCCC5=O)cc4)nc23)cc1 | -8% | 1
9 | Cc1nsc(N[C@@H](C)Cc2c(C)noc2C)c1C#N | -10% | 1.05
10 | O=C(Nc1ccc2[nH]ncc2c1)C1CCN(C(=O)c2ccco2)CC1 | 7% | -0.76
11 | COc1ccc([C@@H]2c3cccn3CCCN2Cc2ccc(F)c(Cl)c2)cc1 | -7% | 0.89
12 | Cc1nc(C)n(C2CN(C(=O)c3nc(C(C)C)oc3C)C2)n1 | 6% | -1.22
13 | Cc1cccc([C@@H]2CCCN2C(=O)CCCN2C(=O)CN(C)C2=O)c1 | -9% | 1.19
14 | Cc1cc(C(=O)NCCc2nnc(C)n2C)cc(C)c1F | -15% | 2.91
15 | COc1ccc(CNC(=O)Cn2cc(-c3ccccc3)c3ncnc(N4CCOCC4)c32)cc1OC | -10% | 1.46
16 | Cc1nn(C(C)C)cc1CNc1cc(F)cc(N(C)C)c1 | -5% | 1.03
17 | COc1ccc(-c2noc(C[C@H]3CNCCS3(=O)=O)n2)cc1C | 0% | 0.05
18 | FCC[C@H]1CN(c2nncc3ccccc23)CCO1 | 0% | 0.03
19 | O=C(Cc1c(F)cccc1Cl)N1CCC(N2C(=O)COCC2=O)CC1 | 12% | -1.57
20 | COC(=O)c1cc(S(=O)(=O)N(C)Cc2ncnn2C)cc(F)c1F | 5% | -0.88
21 | CC1CCN(S(=O)(=O)N2CCC(C(=O)N3CCC(Cc4nncn4Cc4ccccc4)CC3)CC2)CC1 | -9% | 1.05

Row | Structure (SMILES) | % Inhibition | Z score
22 | O=C(c1ccoc1)N1CCC2(CC1)CN(c1cccc(F)c1)[C@@H]2c1ccccc1 | 0% | -0.01
23 | Cc1ccc(OC[C@H]2c3ccsc3CCN2C(=O)CN(C(=O)c2cccs2)C(C)(C)C)c(C)c1 | -3% | 0.39
24 | CCN(CC(=O)Nc1ccc2c(c1)OCCO2)CC(=O)Nc1sccc1C#N | -14% | 2.14
25 | Cc1ccccc1CNC(=O)CN1CCC2(CCC(=O)N(C3CC3)C2)CC1 | -8% | 0.91
26 | COc1ccc(CNC(=O)N2CC[C@H](CS(C)(=O)=O)C2)cc1Cl | -5% | 1.06
27 | CCc1nccn1CCn1c(=O)n(C(CC)CC)c2ncc(C(=O)O)cc21 | -7% | 1.02
28 | CO[C@H]1C[C@@H](O)C12CCN(c1ncnc3c1CCC3)CC2 | 9% | -1.13
29 | Cc1cccc(NC(=O)c2cc(OC(C)C)c3ccoc3c2)n1 | -2% | 0.35
30 | Cc1ccc(-c2cncc(C(=O)Nc3c(C)n(C)n(-c4ccccc4)c3=O)c2)cc1 | 3% | -0.44
31 | CC(C)n1cc(CN2CC[C@@]3(CCCN(C)C3)C2)cn1 | 0% | -0.04
32 | O=C(NC1CCCCC1)N1CC[C@H](N2C(=O)COC2=O)C1 | 1% | -0.14
33 | Cc1nc(NC(=O)c2ccn(C)c(=O)c2)ccc1Br | -3% | 0.37
34 | O=C(C1CCCC1)N1CCC2(CC1)C[C@@H](Cc1cccc(F)c1)CCO2 | -3% | 0.61
35 | COCC[C@H]1CN(Cc2cc(=O)n3nc(C)cc3[nH]2)CCO1 | 7% | -1.19
36 | Cc1cnn(CCO[C@@H]2CCCCO2)c1 | 2% | -0.35
37 | COC[C@H]1CCCCN(c2nc(-c3ccc(F)cc3)no2)C1 | -14% | 1.9
38 | CC1=CCN(C[C@H](O)COc2ccc3c(c2)OCO3)CC1 | -12% | 2.3
39 | CCOC(=O)CN(CCOC)CC(=O)NC1(C#N)CCCCC1 | -2% | 0.44
40 | CC[C@@H](CO)NC(=O)Nc1ccc(OCC(F)(F)F)c(F)c1 | -8% | 0.74
41 | Cc1nn(C)c(C)c1S(=O)(=O)Nc1ccccc1CCc1nc2ccccc2n1C | 7% | -0.78
42 | O=C(CC[C@H]1CCCN(Cc2cc3ccccc3o2)C1)N1CCN(c2ccccn2)CC1 | -4% | 0.83

Row | Structure (SMILES) | % Inhibition | Z score
43 | O=C(C1CC1c1ccccc1F)N(Cc1ccco1)c1cccc(F)c1 (stereo unspecified) | -10% | 0.87
44 | CC1CC(c2ccccc2)CN1c1cc(N2CCOCC2)ncn1 (stereo unspecified) | 5% | -0.64
45 | CC(C)C[C@@H](NC(=O)C1(C)CC1(Cl)Cl)C(=O)O (stereo partly specified) | 1% | -0.13
46 | Cc1cc(NC(=O)c2ccc(Br)c(Cl)c2)nc(=O)[nH]1 | 0% | -0.03
47 | Cc1ccc(NC(=O)Cn2c(C)cc3nc4n(c(=O)c32)CCC4)cc1 | 4% | -0.42
48 | O=C(Nc1ccnn1C1CCC1)[C@H]1C[C@@H]1c1cccc(O)c1 | -8% | 0.97
49 | COc1ccc(F)c(F)c1CN1C[C@H](c2ccc(C)cc2)[C@@H](N(C)C)C1 | -11% | 1.46
50 | O=C(c1sccc1Cl)N1CC[C@@]2(CCCN(Cc3cccnc3)C2=O)C1 | 1% | -0.26
51 | O=C(c1cscn1)N1CCC2C(CCC(=O)N2C2CC2)C1 (stereo unspecified) | -7% | 0.76
52 | Cc1cc(=O)cc(C(=O)NC(Cc2ccncc2)[C@H]2C[C@H](O)C2)n1C (stereo partly specified) | 10% | -1.19
53 | CCN(CC)[C@H]1CCOC2(CCN(C(=O)c3ccc4ccccc4n3)CC2)C1 | -12% | 1.5
54 | CC[C@H]1CN(c2cncc(C(N)=O)n2)CCN1C | 7% | -0.88
55 | CC(=O)N1CCC[C@H](CNC(=O)N[C@H]2CC[C@H](CO)CC2)C1 | 1% | -0.1
56 | O=C(CN1C(=O)N[C@]2(CCOC2)C1=O)N1CCC(c2ccccc2)=N1 | -1% | 0.2
57 | Cc1ccc(Cn2cccc2C(=O)C(=O)Nc2ccc(F)cc2Cl)cc1C | -4% | 0.41
58 | CC(C)(CNC(=O)C1CC1C(=O)O)c1ccccc1F (stereo unspecified) | -4% | 0.7
59 | O=C(NC1CCCCC1)c1cc2c(Cl)ccc3c2n1CCO3 | 38% | -5.57
60 | Cc1noc(C)c1C(C)NC(=O)NCCCC1CCCCO1 (stereo unspecified) | -17% | 1.4
61 | CCC(=O)N(Cc1ccc(C)cc1)c1ccc(CC(=O)NCCOC)cc1 | -8% | 1.15
62 | Cc1ccc(C(=O)N2CC[C@H](Oc3cc(N4CCCC4)ncn3)C2)cn1 | -10% | 1.46
63 | O=C(N[C@@H]1CCCc2ccc(F)cc21)C1CCCCN1C(=O)c1ccco1 (stereo partly specified) | 17% | -1.7

Row | Structure (SMILES) | % Inhibition | Z score
64 | O=C(NCc1ccncc1)C1CCN(c2ncnc3c2oc2ccccc23)CC1 | -13% | 1.79
65 | CCc1ccc(Cn2ncnc2[C@@H]2CCCCN2)cc1 | -7% | 1.35
66 | COCC(=O)Nc1cc(C(=O)N(C[C@H]2CCC(=O)N2)C(C)C)c2c(c1)ncn2Cc1ccc(F)cc1 | -5% | 0.86
67 | CCCCCOCC(=O)N1CC([C@H](C)O)C1 | 5% | -0.66
68 | COc1cc(O)ccc1-c1c(C#N)c(N)nc2c1Cc1c(O)cccc1-2 | 5% | -0.61
69 | Oc1ccc(-c2cnn(-c3nnn[nH]3)c2)c2ccccc12 | -5% | 0.48
70 | O=S(=O)(N(CCO)CCCO)C1(COCc2ccccc2)CC1 | -10% | 1.02
71 | O=C(O)c1cccnc1NC[C@@H](O)CN1CCc2ccccc2C1 | -10% | 1.91
72 | CN(C)S(=O)(=O)N1C[C@H]2CC[C@@H](C1)N(C(=O)CCc1cccc(F)c1)C2 | -13% | 1.68
73 | CC(C)n1cc(CNC[C@@H]2C[C@H](CO)N(C)[C@@H]2c2ccccc2F)cn1 | 1% | -0.18
74 | CC1(C)N=C(c2ccc(F)cc2)C(=O)N1CC(=O)N1CCN(c2ccc(F)cc2)CC1 | 28% | -3.13
75 | O=C(C1CCN(C2CCN(CCCc3ccccc3)CC2)CC1)N1CCC1 | -10% | 1.64
76 | CC1(C)C2CC=C(COCC(O)CNCC3COc4ccccc4O3)C1C2 (stereo unspecified) | -10% | 1.04
77 | COC(=O)CC(C)(C)CC(=O)N(C)[C@@H](C)c1ccc(F)c(F)c1 | -9% | 1.21
78 | O[C@H]1CC[C@@H]1n1cc(-c2cccc(Cl)c2)nn1 | -8% | 0.71
79 | c1ccc2c(c1)OC[C@@H](c1nc3nccc(-c4ccncc4)n3n1)O2 | -10% | 1.28
80 | O=C(NC1CC1c1c(F)cccc1F)c1ccncc1Cl (stereo unspecified) | 0% | 0.01
81 | Cc1ccc(C(C)NC(C)c2nnnn2C)cc1C (stereo unspecified) | -8% | 0.84
82 | Cc1ccc(Oc2cc(C)nc3ncnn23)cn1 | -8% | 0.78
83 | Cc1ccc(C)c(CC(=O)N2CC[C@@H](N)C2)c1 | 2% | -0.22
